Results published in PubChem BioAssay AID488969 (Vanderbilt High Throughput Screening Facility, 2010).
Whole data set: some 110,000 compounds, median “z-score” near -0.1, cut for the highest 2% near 2. Some of the results follow. Calls of active or inactive are those of the source.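 How the source made its calls: active means z-score in the third read window above 3 or below -3; inactive means the rest.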

The molecules below were run against Metabotropic glutamate receptor 8 (Rattus norvegicus) (UniProt P70579) (assay: mGluR8 Gi/Go-coupled signaling modulation – cell-based, rat, thallium flux, HTS, primary screen (AID 488969)). Conditions: HEK293 rat mGluR8, GIRK (G protein-gated inwardly rectifying potassium channel) thallium flux, FluoZin2; at 10 µM; stronger effect = higher value; submaximal glutamate (EC20) added with thallium.
Chain of UniProt P70579 (P70579 whole entry, looked up): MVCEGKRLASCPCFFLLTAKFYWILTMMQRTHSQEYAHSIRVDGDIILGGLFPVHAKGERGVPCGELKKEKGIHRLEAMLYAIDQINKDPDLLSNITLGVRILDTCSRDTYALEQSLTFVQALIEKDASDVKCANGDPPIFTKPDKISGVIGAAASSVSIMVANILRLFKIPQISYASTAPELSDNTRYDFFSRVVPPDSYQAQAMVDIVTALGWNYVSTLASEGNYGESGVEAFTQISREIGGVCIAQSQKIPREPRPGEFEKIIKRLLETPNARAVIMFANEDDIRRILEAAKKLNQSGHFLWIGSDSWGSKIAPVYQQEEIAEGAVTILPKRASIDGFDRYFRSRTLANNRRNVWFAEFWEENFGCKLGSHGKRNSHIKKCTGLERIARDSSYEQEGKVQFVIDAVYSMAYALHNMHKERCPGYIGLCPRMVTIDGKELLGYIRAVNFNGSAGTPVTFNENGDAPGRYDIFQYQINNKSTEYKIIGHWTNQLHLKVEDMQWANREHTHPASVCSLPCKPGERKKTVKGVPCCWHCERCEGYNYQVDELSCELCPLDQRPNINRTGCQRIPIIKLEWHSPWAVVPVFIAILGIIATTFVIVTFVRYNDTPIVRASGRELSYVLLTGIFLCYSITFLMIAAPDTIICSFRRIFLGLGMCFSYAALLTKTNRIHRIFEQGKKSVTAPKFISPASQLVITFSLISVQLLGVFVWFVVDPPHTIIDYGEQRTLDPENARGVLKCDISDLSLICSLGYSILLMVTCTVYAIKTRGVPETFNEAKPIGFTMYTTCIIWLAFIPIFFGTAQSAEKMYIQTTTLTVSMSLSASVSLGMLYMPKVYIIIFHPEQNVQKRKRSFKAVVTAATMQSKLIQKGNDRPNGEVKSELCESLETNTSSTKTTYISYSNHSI

SMILES	z-score
CCCCOC(=O)c1nc(Cl)c(Cl)c(N)c1Cl	-0.252
CCCCP(=O)(c1ccccn1)c1ccccn1	0.00517
COc1ccc(/C=N/NC(=O)CN(CCc2ccccc2)S(=O)(=O)c2ccc(NC(C)=O)cc2)cc1OC	-0.231
CSc1cccc(NS(=O)(=O)c2ccccc2)c1	-0.281
O=C(CSCc1ccc(Cl)cc1)N/N=C/c1ccc(Cl)cc1Cl	0.271
Cc1nn(C)cc1CN(C)C(=O)c1cc2nc(-c3ccco3)cc(C(F)(F)F)n2n1	-0.899
COc1ccc(OC)c(-c2oc3ccccc3c(=O)c2O)c1	0.149
C/C=C/c1ccc(OCCCCOc2ccc(OC)cc2)c(OC)c1	0.557
C/C(N)=C(/C#N)C(=O)COC(=O)CCSc1ccccc1Cl	-0.346
O=C(CSC(=S)N1CCCCC1)N1N=CCC1c1ccccc1 (stereo unspecified)	-0.371
CCOC(=O)NC1(NC(C)C)Oc2ccccc2O1	0.00812
COc1cccc(CNC(=O)CCl)c1	0.214
CS(=O)(=O)N(Cc1ccccc1)c1ccc(C(=O)NCCSc2ccccn2)cc1	0.438
COc1ccc(Oc2cn[nH]c2-c2ccc(O)cc2O)cc1	0.323
Cc1ccc(NS(=O)(=O)c2ccc(C)c(NC(=O)COc3ccccc3)c2)c(C)c1	-0.26
CNC(=O)NC(=O)CSc1nnc(-c2ccco2)n1Cc1ccccc1	0.114
NC(=O)CSc1nnc(-c2cccs2)n1-c1ccccc1	0.733
CCCn1nnnc1SCC(=O)N1CCN(C(=O)c2ccco2)CC1	-0.11
O=C1C(CCCNC(=S)NCc2ccccc2)NC(=S)N1Cc1ccccc1 (stereo unspecified)	0.254
Cc1ccccc1-n1nc(CSc2nc3ccccc3[nH]2)c(-c2ccccc2)c1N	-0.755
COc1ccc(C)cc1-n1nnnc1SCC1CCCO1 (stereo unspecified)	-0.281
CCOC(=O)c1cc2sccc2n1CC(=O)OC	-0.185
CCn1nnnc1SCC(=O)NCc1ccc2c(c1)OCO2	-0.212

SMILES	z-score
COC(=O)C1=C(C)NC(=O)/C1=C\c1cc(C)n(-c2c(C)cccc2C)c1C	1
COc1ccc2c(=O)c3c(=O)n(Cc4ccco4)c(-c4ccc(C)cc4)nc3oc2c1	-2.04
COc1ccc(S(=O)(=O)/N=C2/NC(=O)/C(=C\c3cc(OC)c(OC)cc3[N+](=O)[O-])S2)cc1	-0.711
C=C(C)C1CC=C(C)/C(=N/NC(=O)CNc2ccc(OCC)cc2)C1 (stereo unspecified)	1.99
Cc1nn(Cc2nc(-c3cccs3)no2)c(C)c1Br	-0.107
CCN(CC)C(=O)C1CCCN(c2ccc([N+](=O)[O-])cc2/C=N/NC(=O)c2cccc(Br)c2)C1 (stereo unspecified)	-0.344
Cc1ccc(S(=O)(=O)c2ccc(Cl)cc2)cc1S(=O)(=O)NC(C(=O)O)C(C)C (stereo unspecified)	-0.055
Cc1cc(Cl)ccc1Oc1ncc(CN2CCN(c3ccccc3)CC2)s1	0.272
Cc1ccc(-c2cc(C(=O)N/N=C/C=C/c3ccccc3)n[nH]2)s1	-0.0221
Cc1cc(S(=O)(=O)N(Cc2ccc(C(C)(C)C)cc2)Cc2cccs2)ccc1-n1cnnn1	0.292
Cc1ccc(S(=O)(=O)N(C(=O)c2ccncc2)c2ccc(OC(=O)c3ccncc3)cc2)cc1	-0.112
CCOC(=O)CSc1nc2sc3c(c2c(=O)n1CC)CC(C)(C)OC3	-0.119
CCCOc1ccc(-c2nnc(-c3ccco3)o2)cc1	-0.0301
Cc1cc(C)n(C(=O)c2ccc(NC(=O)C3COc4ccccc4O3)cc2)n1 (stereo unspecified)	-0.154
COc1ccc(-c2ccnc3nc(-n4cccc4)nn23)cc1	-1.1
C=CCN(CC=C)S(=O)(=O)c1ccc(NC(=S)NC(=O)c2ccco2)cc1	active: 10.3
Cc1ccc(S(=O)(=O)N(CC(=O)NCc2ccco2)C2CCCCC2)cc1	-0.303
CC(C)CN1CCC(C(=O)NCC2CCCO2)CC1 (stereo unspecified)	-0.311
CC1=C(C(=O)N2CCOCC2)C(c2ccc(Cl)cc2)NC(=S)N1 (stereo unspecified)	-0.178
Cc1ccc(S(=O)(=O)N2CCN(S(=O)(=O)c3ccc(C)cc3)C2)cc1	-0.481
CC1CCCCC1N1CN=C(Nc2nc3ccccc3s2)NC1 (stereo unspecified)	-0.335
Cc1ccc(C)c(NC(=O)c2cccc(Oc3ccc([N+](=O)[O-])cc3Cl)c2)c1	-0.372
CCOC(=O)c1sc(-c2ccc(C)cc2)c(C#N)c1C	-0.244

SMILES	z-score
Cn1c(/C(C#N)=C/Nc2ccccn2)nc2ccccc21	0.0645
CC1CCCCC12NC(=O)N(Cn1nnc3ccccc3c1=O)C2=O (stereo unspecified)	0.195
Cc1ccc(S(=O)(=O)N2CCCOC2CNC(=O)C(=O)NCCC2=CCCCC2)cc1 (stereo unspecified)	-0.455
CCOC(=O)Nc1cc(C)c(Cl)cc1OC	-0.221
COc1ccc(Nc2nc(-c3cccc([N+](=O)[O-])c3)nc3ccccc23)c(OC)c1	0.00986
Cc1cccc(OCC(=O)Nc2nc3ccc([N+](=O)[O-])cc3s2)c1C	-0.12
O=C(Nc1ccc2ccccc2c1)c1cccnc1	-0.194
COc1ccc(OC)c(NC(=S)N2CCN(c3ccccn3)CC2)c1	-0.116
CCC(CC)NC(=O)COC(=O)c1ccc(OCC(=O)Nc2ccccc2OC)c(OC)c1	-0.0802
N#CCCn1nc(-c2ccccc2)cc1-n1c(C(F)(F)F)nc2ccccc21	-0.505
CCOC(=O)CNC(=O)Cn1cnc2ccc(S(=O)(=O)N3CCC(C)CC3)cc2c1=O	0.396
Cc1ccc2c(c1)N(CCC(=O)NCc1ccccn1)C(=O)CO2	0.652
O=C(NCc1cccnc1)C1CCCN(S(=O)(=O)c2ccc(Cl)cc2)C1 (stereo unspecified)	0.714
CCOC(=O)c1[nH]c2ccccc2c1NC(=O)C(C)(C)C	0.413
N#Cc1nc(COc2ccc(Cl)cc2)oc1N1CCN(Cc2ccccc2)CC1	0.521
CCN(CCCNC(=O)C1CCCN(S(=O)(=O)CC)C1)c1cccc(C)c1 (stereo unspecified)	-0.0948
CSc1cccc(NC(=O)c2c(Cl)cnn2C)c1	-0.0278
C/C(=C\C(=O)c1ccccc1)Nc1ccc2c(c1)OCO2	0.023
CCC(NS(=O)(=O)c1ccc(OC)cc1)C(=O)NCCC1=CCCCC1 (stereo unspecified)	-0.931
Cc1ccc(C)c(N2CCN(C(=O)Cc3ccc(-n4c(=O)[nH]c5ccsc5c4=O)cc3)CC2)c1	0.111
O=C(NCCCCNC(=O)c1ccc(Br)s1)c1ccc(Br)s1	0.224
O=C(/C=C/c1ccccc1Cl)NCCc1ccccc1	-0.1
COC(=O)c1cccnc1-n1c(=O)c2cccnc2n(Cc2cccc(OC)c2)c1=O	-0.124

SMILES	z-score
CCO/C=C1\N=C(c2ccc(F)cc2)OC1=O	-0.109
O=C(CN1C(=O)c2ccccc2C1=O)NCCc1c[nH]c2ccc(Cl)cc12	-0.00708
CCOc1ccc(Oc2c(/C=N/NC(C)=O)c(C)nn2-c2ccccc2)cc1	-0.222
O=C(O)COc1ccc(Br)cc1/C=N/O	0.512
Cc1cc2nc(N)sc2cc1C	0.535
O=C1c2cccnc2C(=O)N1Cc1ccc(F)cc1	-0.357
Cc1ccc(-c2csc3ncnc(Oc4ccc5c(C)cc(=O)oc5c4)c23)cc1	-0.234
CCCOC(=O)Oc1ccc2c(=O)c(Oc3cc(C)cc(C)c3)coc2c1	-0.218
CCC(CC)=N/N=C/c1c(O)n(CC)c2cc(C3=NNC(=O)CC3)ccc12	-0.372
COc1ccccc1C(=O)Nc1c2c(nn1-c1cccc(C)c1C)CS(=O)(=O)C2	-0.999
Cc1cccc2[nH]c(-c3ccc(NC(=O)c4ccco4)cc3)nc12	-0.408
CCOC(=O)c1ccc(N2CCN(c3ccc(F)cc3)CC2)c(NC(=O)Nc2cccc(OC)c2)c1	-0.148
COc1cccc(/C=N/Nc2nn3cnnc3c3ccccc23)c1O	-0.377
CCCC(c1nnnn1CCc1ccccc1)N1CCN(C(=O)c2ccco2)CC1 (stereo unspecified)	-1.18
C=CCOc1c(CNc2cccc(C(=O)O)c2)cccc1OC	-0.325
O=C1c2ccccc2C(Nc2ccc3c(c2)OCCO3)N1Cc1ccccc1 (stereo unspecified)	-0.484
Cc1ccc2c(CN3CCCc4ccccc43)cc(=O)oc2c1C	0.351
CC/C(=N\NC(=O)c1csc(C)c1C)c1cccs1	1.32
Cn1c(=O)[nH]c(=O)c2c1nc(NCCCn1ccnc1)n2Cc1ccc(F)cc1	0.613
CCCN(CC1CC1)C(=O)COC(=O)c1[nH]c(C)c(C(=O)OCC)c1C	-0.372
Cc1ccc(NC(N)=S)cc1	-0.167
CCOC(=O)c1c2n(c3ccc(OC(C)=O)cc13)CCC2	-0.975
O=C(CSc1nc2ccc([N+](=O)[O-])cc2[nH]1)c1ccc2ccccc2c1	-0.117

SMILES	z-score
O=C(Cn1cnc2ccccc21)N/N=C/c1ccc([N+](=O)[O-])cc1	-0.28
O=C(CSc1nnc(-c2cccnc2)s1)Nc1ccc(C(=O)O)cc1	-0.272
O=C(COC(=O)/C=C/c1ccc(Cl)cc1)NCCc1ccccc1	0.183
COc1ccc(-c2noc(-c3ccc(C)cc3)n2)cc1	-0.119
O=C1C(Nc2ccccc2)=C(NS(=O)(=O)c2ccccc2)C(=O)c2ccccc21	0.00433
COc1ccc(OC)c(C(c2nnnn2CCC(C)C)N2CCN(C(=O)c3ccco3)CC2)c1 (stereo unspecified)	0.439
N#Cc1c(N)nc2c(c1-c1ccncc1)CCCC2	-0.232
Cc1nc(NC(=O)c2oc3ccccc3c2C)sc1C(=O)N(C)C	0.47
COC(=O)CSc1nnc(-c2ccccc2OC)o1	-2.68
CCC(=O)N1CCN(c2cc(C)ccc2C)CC1	0.999
Cc1ccc(/C=C/C(=O)NCc2ccncc2)cc1	-0.406
CCCC(=O)NC(=S)Nc1nc(-c2ccc(OC)cc2)cs1	0.0021
O=C(Nc1cnccn1)C1c2ccccc2Oc2ccccc21	-0.0615
CC1CCC2(CC1)NC(=O)N(CC(=O)c1cccn1C)C2=O (stereo unspecified)	0.0445
CC1(C)CC(=NOC(=O)c2ccccc2)CC(C)(C)N1	-0.0122
CN(C)S(=O)(=O)Nc1ccc(Oc2ccccc2)cc1	0.226
CCOc1ccccc1C(=O)N(CN1CCCC1=O)c1ccc(C)c(Cl)c1	0.589
Cc1ccc(NC(=O)COC(=O)Cn2c(C)csc2=O)cc1C	1.02
O=C(NC1CCCC1)C(Cc1ccccc1)n1cccc1 (stereo unspecified)	0.182
